# Test results from PubChem BioAssay AID485281 (National Center for Advancing Translational Sciences (NCATS), 2010).
# Screen size: about 350,000 compounds; about 260 (0.074%) were called active. The shares of active, inactive and inconclusive entries below differ from those in the screen. Calls follow the shape of the dose curve; as a rule, active = well fitted inhibition curve with a large enough effect; inconclusive = small, poorly fitted or top-dose-only effect; inactive = no such curve, though single readings can be large or run the other way. A potency beside an inconclusive call is a rough fit, not a confirmed value.
# Biological target: Ferritin light chain (Equus caballus) (UniProt P02791)
# Sequence of UniProt P02791 (P02791 whole entry, looked up): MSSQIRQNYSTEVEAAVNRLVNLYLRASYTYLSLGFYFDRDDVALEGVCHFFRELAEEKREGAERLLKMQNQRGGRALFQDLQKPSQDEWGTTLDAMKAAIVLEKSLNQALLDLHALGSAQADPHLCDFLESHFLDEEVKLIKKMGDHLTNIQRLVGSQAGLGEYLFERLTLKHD
# Experiment: qHTS Assay for Identification of Novel General Anesthetics; also: nearly all actives have a fitted effect of over 20% in size
# Settings: apoferritin/1-aminoanthracene competitive binding, fluorescence; activity change, negative = displacement: at 77.5 µM (top of the series)
# Procedure, shortened: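 Horse-spleen apoferritin (10 uM) was mixed with 50% saturated 1-aminoanthracene in PBS, exposed to compounds for 10 min at room temperature, and read for fluorescence (ex 380 nm, em 535 nm). Competitive displacement was fitted with a four-parameter Hill equation.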
# % is scaled to controls: 0 for no effect and ±100 for the full control effect; potency is read from the fitted curve at half-maximal effect; tags tell the direction and shape of the fitted curve.
Structure (SMILES),"activity change, negative = displacement",Potency
CCc1c(C)nc2ncnn2c1N1CCCC(C(=O)NCc2ccc3c(c2)OCO3)C1 (stereo unspecified),inactive: -13.2%,–
CS(=O)(=O)C1=NSC2=NC(=O)/C(=C\c3cccn3-c3ccccc3Cl)C(=N)N21,–,"inconclusive: 31.6 µM [inhibitor, single point]"
Cc1cc(NC(=O)CSc2nc3c(c(=O)n2-c2ccc(Br)cc2)SCC3)no1,–,"inconclusive: 0.794 µM [inhibitor, partial curve, poor fit]"
CCN(CC)C(=S)Nc1ccc(Cl)c(Cl)c1,–,"inconclusive: 22.4 µM [inhibitor, partial curve]"
O=C(Nc1ccc(Cl)c(Cl)c1)OCCNC(=O)c1ccncc1,–,"inconclusive: 28.2 µM [inhibitor, partial curve]"
CCOc1ccc2nc3c(cc2c1)CN(CCCO)C(=NCCOC)S3,–,"inconclusive: 35.5 µM [inhibitor, single point]"
CC[n+]1c(/C=C2\C=C(C)CC(C)C2)sc2ccccc21 (stereo unspecified),–,"inconclusive: 35.5 µM [inhibitor, partial curve]"
Cc1ccc(Nc2nc(CSc3nnc(-c4cccnc4)n3-c3ccccc3F)cs2)cc1,–,"inconclusive: 35.5 µM [inhibitor, single point]"
COc1cccc(NC(=O)C(NC2CCCC2)c2ccccc2)c1 (stereo unspecified),–,"inconclusive: 14.1 µM [inhibitor, partial curve]"
O=C(NNS(=O)(=O)c1ccc([N+](=O)[O-])cc1)C1CCCCC1,–,"inconclusive: 20 µM [inhibitor, partial curve]"
CC(C)C(=O)N(Cc1cc2ccccc2[nH]c1=O)C(C)C,–,"inconclusive: 15.8 µM [inhibitor, partial curve]"
Cc1ccc(CSC2=Nc3ccccc3C3=NC(CCC(=O)NCc4cccs4)C(=O)N23)c(C)c1 (stereo unspecified),–,"inconclusive: 8.91 µM [inhibitor, full curve]"
NC(=O)C1CCN(C2=C(Cl)C(=O)c3ccccc3C2=O)CC1,inactive: -22%,–
CCC(Oc1ccccc1)C(=O)N1CCN(Cc2cc(=O)n3nc(-c4cccc(C)c4)sc3n2)CC1 (stereo unspecified),–,"inconclusive: 7.08 µM [inhibitor, partial curve]"
CC1CCN(S(=O)(=O)c2ccc(N/N=C(/C#N)C(N)=O)cc2)CC1,–,"inconclusive: 22.4 µM [inhibitor, partial curve]"
O=C(NCCC1=CCCCC1)NC12CC3CC(CC(C3)C1)C2,–,"inconclusive: 0.891 µM [inhibitor, full curve, poor fit]"
CCOC(=O)C1C(C(=O)OC)=C(c2ccc(F)cc2)c2ccc(OC)cc2N1S(=O)(=O)C(F)(F)F (stereo unspecified),–,"inconclusive: 14.1 µM [inhibitor, partial curve]"
Cc1cccc(-c2ncc(CN3CCC(CO)(CCCc4ccccc4)CC3)cn2)c1,–,"inconclusive: 39.8 µM [inhibitor, single point]"
O=C(Nc1ccccc1Cl)NC1CCCCCCC1,–,"inconclusive: 15.8 µM [inhibitor, partial curve]"
CC(C)c1ccc(/C=C/C2=NNC(=O)CC2)cc1,–,"inconclusive: 35.5 µM [inhibitor, single point]"
CC1=NN(c2ccccc2)C(=O)C1N=Nc1cccc(O)c1 (stereo unspecified),–,"inconclusive: 28.2 µM [inhibitor, partial curve]"
NNC(=O)CNc1cccc(Cl)c1,–,"inconclusive: 28.2 µM [inhibitor, partial curve]"

Structure (SMILES),"activity change, negative = displacement",Potency
Cc1cccc(Oc2ccc(N)cc2)c1,–,"inconclusive: 28.2 µM [inhibitor, partial curve]"
CC(=O)c1ccc(NC(=O)CSc2nc(-c3ccccc3C)nc3c2c(=O)n(C)c(=O)n3C)cc1,–,"inconclusive: 1 µM [inhibitor, full curve]"
O=C(C1CCCN(S(=O)(=O)c2cccc3nonc23)C1)N1CCN(c2cccc(C(F)(F)F)c2)CC1 (stereo unspecified),–,"inconclusive: 10 µM [inhibitor, partial curve]"
CCOC(=O)N1CCN(CCC(=O)c2ccc(Br)cc2)CC1,inactive: -3.08%,–
O=C(CSc1ncc(-c2ccc(Cl)cc2)[nH]1)Nc1ccccc1F,–,"inconclusive: 15.8 µM [inhibitor, partial curve]"
CC(C)COc1cccc(C(=O)Nc2ccc(CN3CCOCC3)cc2)c1,–,"inconclusive: 28.2 µM [inhibitor, partial curve]"
O=C(Nc1ccc(C(=O)N2CCOCC2)cc1)Nc1cccc2ccccc12,–,"inconclusive: 31.6 µM [inhibitor, partial curve]"
CC(C)(C)OC(=O)N1CCC(c2cc(=O)n3[nH]cc(C(=O)NC4CCCC4)c3n2)CC1,inactive: -12.6%,–
O=C(O)CNS(=O)(=O)c1ccc2c(c1)C(=O)c1cc(S(=O)(=O)NCC(=O)O)ccc1-2,inactive: -1.22%,–
Cc1ccc(C(=O)Nc2nnc(S(=O)(=O)Nc3ccccc3C)s2)cc1C,–,"inconclusive: 25.1 µM [inhibitor, partial curve]"
COc1ccccc1C(=O)NCc1ccc2c(c1)OCO2,–,"inconclusive: 25.1 µM [inhibitor, single point]"
Cc1cc(C(=O)CCl)c(C)n1CCc1ccc(Cl)cc1,–,"inconclusive: 35.5 µM [inhibitor, partial curve]"
C=CCN(CC=C)C(=O)Nc1cc(Cl)ccc1OC,–,"inconclusive: 25.1 µM [inhibitor, partial curve]"
CC(=O)N1CCn2c3c(c4cc(C)ccc42)CCCC31 (stereo unspecified),inactive: -9.05%,–
COc1ccc(C2NS(=O)(=O)OCC2C)cc1 (stereo unspecified),–,"inconclusive: 17.8 µM [inhibitor, partial curve]"
CCN(Cc1ccccc1)S(=O)(=O)c1ccc(C(=O)N(CCCN(C)C)c2nc3cc4c(cc3s2)OCO4)cc1,–,"inconclusive: 35.5 µM [inhibitor, single point]"
CCCCNC(=O)Cn1nc(-c2ccc(C)cc2)ccc1=O,–,"inconclusive: 7.94 µM [inhibitor, partial curve]"
CCCOc1ccc(C(=O)N2CCN(c3ccc(N)cc3Cl)CC2)cc1,–,"inconclusive: 12.6 µM [inhibitor, partial curve]"
CCOC(=O)c1ccc(-c2ccc(/C=N/NC(=O)CN(c3ccccc3Br)S(C)(=O)=O)o2)cc1,inactive: -14.8%,–
Cc1cccc(N(C)S(=O)(=O)c2cc3[nH]c(=O)c(=O)[nH]c3cc2C)c1,–,"inconclusive: 50.1 µM [inhibitor, single point]"
CC(C)c1ccc(OCC(=O)NN2C(=O)c3ccccc3C2=O)c(Br)c1,–,"inconclusive: 39.8 µM [inhibitor, partial curve]"
Cc1cccc(Oc2ccc(NC(=O)c3ccccc3C(=O)O)cc2)c1C,–,"inconclusive: 50.1 µM [inhibitor, single point]"

Structure (SMILES),"activity change, negative = displacement",Potency
CN1C(=O)c2cccc(NCCCN3C(=O)c4ccccc4C3=O)c2C1=O,inactive: 2.64%,–
COc1ccc(-c2[nH]ncc2-c2ccc(Cl)cc2)c(O)c1,–,"inconclusive: 56.2 µM [inhibitor, single point]"
Cc1ccc(NC(=O)c2scc3c2CCCC3)cc1,–,"inconclusive: 50.1 µM [inhibitor, single point]"
COc1ccc(Cl)cc1NC(=O)CSc1ccc2nnc(CCNS(=O)(=O)c3ccccc3)n2n1,–,"inconclusive: 25.1 µM [inhibitor, partial curve]"
CC1CCCCC1NC(=O)COC(=O)c1ccc(N(C)C)cc1 (stereo unspecified),–,"inconclusive: 10 µM [inhibitor, partial curve]"
Cc1nc2c(cnn2-c2ccccc2)c(=O)n1/N=C/c1ccccc1,inactive: -7.91%,–
CCCC1=NN2C(=N)/C(=C\c3ccc(SCc4ccco4)o3)C(=O)N=C2S1,–,"inconclusive: 50.1 µM [inhibitor, single point]"
O=C(Nc1ccc(Cl)cc1)c1ccc(-n2cccn2)c([N+](=O)[O-])c1,inactive: 6.34%,–
COc1cccc2c1cc1c(=O)n(CC(=O)NCc3ccco3)nc(C)n12,inactive: 6.97%,–
COC(=O)C(NC(=O)c1ccccc1C)(Nc1ncc(S(=O)(=O)c2ccc([N+](=O)[O-])cc2)s1)C(F)(F)F (stereo unspecified),–,"inconclusive: 17.8 µM [inhibitor, partial curve]"
S=C1NC2=C(CCCC2=C2SCCCS2)C(c2ccccc2)N1 (stereo unspecified),inactive: -18.6%,–
CC1(C)CC(=O)N(c2cccc(Cl)c2)C(=O)C1,–,"inconclusive: 44.7 µM [inhibitor, single point]"
CCOC(=O)N1CCN(C(=O)c2ccc3nc4ccc(Cl)cc4c(=O)n3c2)CC1,inactive: 1.25%,–
CC(C)OCc1cc(CN2CCN(c3cccc(C(F)(F)F)c3)CC2)c(O)c2ncccc12,inactive: -4.12%,–
N#C/C(=C\c1ccc(C#N)cc1)C(=O)c1ccccc1,inactive: 4.34%,–
CCCc1ccc(OC(=O)c2cccs2)cc1,–,"inconclusive: 50.1 µM [inhibitor, single point]"
O=C(Nc1ccc(Br)cc1)N1CCCCCCC1,–,"inconclusive: 5.62 µM [inhibitor, full curve]"
O=C(Nc1ccc(F)cc1F)N1CCCCCC1,–,"inconclusive: 22.4 µM [inhibitor, partial curve]"
COc1ccc(C2/C=C\CN(Cc3ccco3)CC(=O)N2Cc2ccc(F)cc2)cc1 (stereo unspecified),–,"inconclusive: 39.8 µM [inhibitor, single point]"
CC(C)C(C(=O)O)N1C(=O)/C(=C/c2ccc(Br)cc2)SC1=S (stereo unspecified),–,"inconclusive: 31.6 µM [inhibitor, partial curve]"
COc1cc(/C=N/N=C(/N)c2nonc2N)cc(Br)c1OCc1ccccc1C,–,"inconclusive: 17.8 µM [inhibitor, partial curve]"
O=C(Nc1ccc(C(O)(C(F)(F)F)C(F)(F)F)cc1)c1ccc(Cl)c([N+](=O)[O-])c1,–,"inconclusive: 50.1 µM [inhibitor, single point]"
